Read-outs that look alike come from different tables or passages of the source.
Tested on: SARS-CoV-2

Molecule	susceptibility of ACE2-A549 cells to SARS-COV-2 infection (48 hours, 5 UI/mL Apyrase, 500 μM Probenecid, FIG. 15)	susceptibility of ACE2-A549 cells to SARS-COV-2 infection
Apyrase	reduce the susceptibility of ACE2-A549 cells to SARS-COV-2 infection	
CCCN(CCC)S(=O)(=O)c1ccc(C(=O)O)cc1 [Probenecid]		reduce the susceptibility of ACE2-A549 cells to SARS-COV-2 infection
